The chains are these.
B1: CPEB3 Ribozyme (parent)
chain: UAACAGGGGGCCACAGCAGAAGCGUUCACGUCGCAGCCCCUGUCAGAUUCUGGUGAAUCUGCGAAUUCUGCUGUAUAUCUC

The source gives no read counts; variants with many changes may rest on few reads.

In this data set the parent is B1. As to the kind of experiment: self-cleavage, relative activity (ratio to wild type); higher = more cleavage; in vitro, sequencing. In a few lines:
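Barcoded CPEB3 ribozyme mutants, produced by rounds of error-prone PCR, self-cleaved while being transcribed with T7 RNA polymerase for 5 hours at 37°C and during a subsequent 15 min DNase I step before EDTA was added. Sequencing of template-switched cDNA on Illumina gave cleaved and total reads, and DNA sequencing assigned barcodes to variants. Each variant's relative activity is its cleaved/total read fraction divided by the unmutated ribozyme's fraction, averaged across three batches. A variant needed a minimum of 5 reads.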
With A21G A47G A56U U66A U69C, the self-cleavage came out at 0.04.
Take A21G C39U A65G A77G U78C: the self-cleavage is 0.03.
Take A21G A35G G42C: the self-cleavage was 0.16.
The same measure for A21G A57G U69C: 0.31; for A20U U31G U49A U66C: 0.1; for A21G A35G U51A A75G: 1.08.
The same measure for A21G C68G A75G: 0.14; for A21G C34A U67A: 0.15; for A21G A28C C32G: 0.16.
As to A20U U31A A35G A77G, the self-cleavage was 0.61.
The same measure for A20U U43C U54A A64G A65G U78C: 0.1; for A21G G42A A56U: 0.16.
As for A21G G55U U76C, the self-cleavage stood at 0.17.
Take A21G A28G U43A: the self-cleavage was 0.41.
As for A21G A35U U54C, the self-cleavage was found to be 0.14.
For A20U U31C G73A, the self-cleavage came out at 0.33.
With A21G A28G G52C A56G, the self-cleavage was 0.15.
The same measure for A21G G24C U41A U78C: 0.17; for A21G C23A U60A U69C: 0.29.
For the variant A21G A57U U58C, the self-cleavage came to 0.33.
As to A21G C23G A45G, the self-cleavage amounted to 0.19.
In the case of A21G C27A U41A U60A, the self-cleavage is 0.16.
As for A20U U48C A64G U78C, the figure is 0.07; as for A21C U48C U54C, 0.11; as for A21C U41C U80C, 0.22.
As for A20U U41A A56U U66A, the figure is 0.17; as for A21G A35U A47G U60C A77G, 0.02; as for A20U U43C A56G, 0.17.
With A21G A57U U69C, the self-cleavage stood at 0.17.
In the case of A21G A65G U78C, the self-cleavage came out at 0.35.
As to A21G G42A U66A, the self-cleavage came out at 0.35.
On to A21G A35G C59U U66A U69G, for which the self-cleavage was found to be 0.21.
Take A20U U72A U78C: the self-cleavage worked out at 0.43.
On to A21G A28G U69A U80C, for which the self-cleavage was determined as 0.05.
As to A20U U48C U76C U78C, the self-cleavage amounted to 0.21.
With A21G C40U U51A, the self-cleavage is 0.21.
As to A20U U43C A47G, the self-cleavage is 0.28.
The same measure for A20U U41C A47U U58C C59A: 0.1; for A21G G24C A35G: 0.39.
Consider A21C C34A U41C U78C, for which the self-cleavage amounted to 0.05.
As for A21G C32U U72A, the self-cleavage was determined as 0.17.
With A21G G24U C38U U49A U72C U74A, the self-cleavage came out at 0.04.
For the variant A21G A28U A57G C79G, the self-cleavage amounted to 0.33.
A21C A45U U69C: the self-cleavage was 0.46.
The same measure for A20U U43G U51A U72G U76C U80C: 0.29; for A20U U31C C32U U43A U69C C79A: 0.06; for A21G A56U U69A U72A: 0.11.
As for A21G C32U A65G U67C, the figure is 0.1; as for A20U U26C G33U U54C A64U, 0.23.
Consider A20U U48C A64G, for which the self-cleavage was determined as 0.22.
In the case of A20U U51A A56U, the self-cleavage worked out at 0.44.
A21G C23U C62G A65G A77G U80C: the self-cleavage was determined as 0.09.
The same measure for A21G A47G U49C U67C U69C U76G: 0; for A21G G24A U51C: 0.
In the case of A21G A28G U49G C62A, the self-cleavage is 0.08.
A21G A28G U54C A64U C81U: the self-cleavage was 0.08.
Take A21G U25A C79U U80C: the self-cleavage amounted to 0.31.
In the case of A21G A28G U31C U51A U60C A65C A75G, the self-cleavage turned out to be 0.08.
In the case of A21G G24A A28G, the self-cleavage was found to be 0.36.
For the variant A21G A28G U72A, the self-cleavage worked out at 0.15.
The same measure for A21G A28G U43G U78C: 0.25; for A20U U41A U58A: 0.15; for A20U U49C U51A: 0.35.
In the case of A21G C44G A75G, the self-cleavage stood at 0.04.
Regarding A21G A47G U49G A75U, the self-cleavage came out at 0.1.
As to A21C A47U U51G U66A, the self-cleavage is 0.16.
A21G A28G U41A: the self-cleavage was found to be 0.24.
As for A21G C62A U78C, the self-cleavage was found to be 0.17.
For A21G A45G U49C U60C C62U U74C, the self-cleavage was found to be 0.14.
As for A21G C59U U69A, the self-cleavage was 0.13.
For the variant A21G A28G A35U U48G, the self-cleavage was determined as 0.25.
In the case of A20U U48C U69C, the self-cleavage came to 0.07.
The same measure for A20U U26C C81A: 0.19; for A21G U25A A35G A56U: 0.12.
On to A21G A35G G36U U49C G73U, for which the self-cleavage is 0.05.
For the variant A20U U51A U66C U80A, the self-cleavage is 0.14.
In the case of A21G G36A U54C U78A, the self-cleavage was determined as 0.14.
For A21G A56G C62U U80A, the self-cleavage amounted to 0.
As for A21G G42U U51A A56G, the self-cleavage was 0.04.
The same measure for A20U U31A U78G: 0.12; for A21G G46A U54C U60C: 0.08; for A21G C34G A45U: 0.05.
As for A20U U41G U51A U74C, the figure is 0.08; as for A21G U25C A64G, 0.27; as for A21G A28G C29G, 0.08.
A21C U41C U69C: the self-cleavage came out at 0.21.
For A21G A57G A64G U66C U67A, the self-cleavage was found to be 0.25.
As for A21G A45U A47G U72C, the figure is 0.16.
For the variant A20U U48C U49C U60A U80C, the self-cleavage was determined as 0.28.
With A21G C27G U49C G63A U76G, the self-cleavage came to 0.05.
The same measure for A21G A28G A45G U69A U80A: 0.2; for A20U U49A U80C: 0.44; for A20U U51A A57C G73A: 0.32.
Take A21G A64G U76C: the self-cleavage is 0.43.
The same measure for A20U U41C U60C U69A U72C: 0.2.
The same measure for A21G C38U U49C A64C: 0.07; for A21G G24A U25C G70A: 0.29.
With A21G A28G U49C U74A, the self-cleavage was 0.07.
A21G A35G A47G A56U U69C: the self-cleavage amounted to 0.3.
As for A20U U74C A75U, the figure is 0.51.
For A20U U41G A56G, the self-cleavage stood at 0.07.
For the variant A21G C40U A47G U78C, the self-cleavage worked out at 0.24.
Regarding A21G G33U C39G A47G, the self-cleavage stood at 0.07.
With A21G G52C U80G, the self-cleavage came to 0.58.
In the case of A20U U41C U66C, the self-cleavage was 0.34.
With A21G A35G U43C A45U A56G U80C, the self-cleavage was found to be 0.49.
Consider A21G C23U A28U A35G U43C U78C, for which the self-cleavage was found to be 0.03.
For the variant A21G U25C A45G U60A A64G U80C, the self-cleavage turned out to be 0.29.
The same measure for A20U U43C A47G A77G: 0.12; for A20U U54A U80C: 0.42; for A21G A75G U80C: 0.35.
With A21G C29G U41A, the self-cleavage stood at 0.18.
In the case of A21G U25A A28G U41A U51A U80A, the self-cleavage was 0.
The same measure for A21C U43C U69C: 0.1.
For the variant A21G G53A C62G U76C, the self-cleavage was 0.2.
The same measure for A21G C40A U80C: 0.1; for A21G G24C A35U G36U U67A U76C U78A: 0.06.
Take A21G A28G A45G A56G: the self-cleavage stood at 0.07.
The same measure for A21G G33A A65G U76C: 0.38; for A21G C50U A64U: 0.22; for A21G C32A A47G A75U: 0.08.
As to A20U U41C U51A G52U A65G U69A U72C, the self-cleavage amounted to 0.13.
As for A21G C32G A35U, the self-cleavage worked out at 0.4.
A21G G30A A56G U58C U80C: the self-cleavage was 0.16.
For A20U U58G A64G U78C, the self-cleavage is 0.19.
Regarding A21G C29A A35U U60C A77G, the self-cleavage came to 0.05.
On to A21G U25A C39U U49A G52A A65G A77G, for which the self-cleavage stood at 0.03.
With A21G C27A A45G, the self-cleavage was determined as 0.17.
On to A21G A64U U72C, for which the self-cleavage stood at 0.21.
The same measure for A21G A47G G63U U67A: 0.15; for A21G A28G C59A U72A: 0.05; for A21G A45G A47G U49C U69A: 0.23.
Turning to A20U U43C U49C U80C, the self-cleavage was determined as 0.16.
As to A21G A56G C59U, the self-cleavage amounted to 0.21.
The same measure for A21G C40U U72A U80C: 0.75; for A21G C23A U41C A56G: 0.23; for A21G G53U A56U A57G U60A U72C: 0.09.
As to A21G A28U G46U A57G A75U, the self-cleavage worked out at 0.22.
As for A21G A35G A64G A65G, the self-cleavage amounted to 0.23.
The same measure for A20U U54G A57G A65G: 0.06; for A21G A28G A57G: 0.15; for A21G G63A U80C: 0.54.
Regarding A21G G52U U54A, the self-cleavage came out at 0.26.
As for A21G A35G A65U U67C U72A U74C U80A, the figure is 0.14; as for A21G C39U A57U, 0.24.
Regarding A20U U51A A77G U80C, the self-cleavage was determined as 0.26.
In the case of A21G A64G U74C A77U, the self-cleavage stood at 0.66.
In the case of A21G C23U G30A A65G, the self-cleavage is 0.14.
With A21G U25C A77G U78C, the self-cleavage worked out at 0.08.
As for A21G A35U U43G G52A C62U A64G U67A, the self-cleavage turned out to be 0.09.
On to A21G U25C A57G U69C U78C, for which the self-cleavage was 0.17.
With A21G A45G U58C, the self-cleavage was determined as 0.18.
In the case of A20U U60C U80A, the self-cleavage came to 0.1.
A20U U26C U76C: the self-cleavage was 0.06.
As for A21G A28U U41G A56U A65G, the self-cleavage was 0.
On to A21G A47G U66G, for which the self-cleavage is 0.34.
For A20U U72A U80A, the self-cleavage came out at 0.14.
A21G A28G A56G C59A U60C A64U U78A: the self-cleavage was found to be 0.01.
Take A21G A56U U60C: the self-cleavage is 0.18.
Regarding A21G G33U A35U U54G, the self-cleavage turned out to be 0.17.
For the variant A20U U41A U51A C68U U72G, the self-cleavage was determined as 0.03.
Consider A21G C23G C34U U43G C44G U54C U66C, for which the self-cleavage was found to be 0.05.
On to A20U U41C U51A G52U C62U U69A, for which the self-cleavage was found to be 0.13.
As to A21G A65G G70A A75U, the self-cleavage amounted to 0.05.
Regarding A21G A28U U51C U66C A77G, the self-cleavage was 0.72.
As for A20U U43C U66C, the figure is 0.07; as for A21G G36U A57G A77U, 0.06.

Values taken from the RNAGym collection of RNA variant scans (doi:10.1093/nar/gkz1192).
